Assay results published in PubChem BioAssay AID686979 (National Center for Advancing Translational Sciences (NCATS), 2013).
Hit rate of the full screen: of about 420,000 compounds, about 50,000 (12%) were called active. Inconclusive means that the source gave no clear call. Such entries were picked first, then a sample of the others. Calls follow the shape of the dose curve; as a rule, active = well fitted inhibition curve with a large enough effect; inconclusive = small, poorly fitted or top-dose-only effect; inactive = flat fitted curve, though single readings scatter. No potency is given beside an inconclusive call; the fits are too rough.

Test: qHTS for Inhibitors of human tyrosyl-DNA phosphodiesterase 1 (TDP1): qHTS in cells in presence of CPT; also: nearly all actives have a fitted effect of over 55% in size
Conditions: chicken DT40 Tdp1-/-;hTDP1 cells + 20 nM CPT, ATP luminescence, 48 h; activity change, negative = growth inhibition: at 46.2 µM (top of the series) unless noted
In short: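 Chicken DT40 Tdp1-/- cells complemented with human TDP1, 400 cells/well, exposed to compounds plus 20 nM camptothecin for at least 48 h at 37 C; viability read as ATP content by CellTiter-Glo luminescence.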
% is scaled to controls: 0 for no effect and ±100 for the full control effect; potency is read from the fitted curve at half-maximal effect; tags tell the direction and shape of the fitted curve.

SMILES | Potency | activity change, negative = growth inhibition
O=C(NCCc1ccncc1)c1ccc2nc(Cc3cccc(Cl)c3)oc2c1 | inactive | –
Cc1cc(Cl)cc(C)c1OCCNCc1ccccc1 | inconclusive [inhibitor, single point] | –
CCOC(=O)c1ccc2nc(C(F)(F)F)[nH]c(=O)c2c1 | active: 16.4 µM | –
CC(C)(C)C(=O)/C=c1\s/c(=C\c2ccc(-c3ccc([N+](=O)[O-])cc3)o2)c(=O)n1CC(=O)NC(N)=O | inconclusive [inhibitor, single point] | –
CCOCCn1ccc2c(OCC(=O)Nc3ccccc3OC)cccc2c1=O | inconclusive [inhibitor, single point] | –
COc1ccc(-c2nc(=N)sn2-c2ccccc2)cc1 | inconclusive [inhibitor, single point] | –
COc1c(OC(C)=O)ccc(/C=C/c2ccc3ccccc3n2)c1[N+](=O)[O-] | inconclusive [inhibitor, partial curve, poor fit] | –
CC(C)CCC1(CCNC(C)c2cccs2)CCOC(C)(C)C1 (stereo not drawn) | inconclusive [inhibitor, single point] | –
c1ccc(-c2c[n+]3c(n2-c2ccccc2)SCC3)cc1 | inconclusive [inhibitor, partial curve, poor fit] | –
COc1ccccc1C(=O)Nc1nnc(-c2ccc(Cl)cc2)o1 | inactive | –
O=C(Nc1ccncc1)c1ccc2c(c1)C(=O)N(C1CCCCC1)C2=O | active: 18.4 µM | –
Cc1cn([C@H]2C[C@H](O)[C@@H](CNC(=O)c3ccccn3)O2)c(=O)[nH]c1=O | inactive | –
COc1cc(/C=N/NC(=O)c2cccnc2)ccc1OS(=O)(=O)c1ccc(F)cc1 | inconclusive [inhibitor, single point] | –
Cc1cc(N2C(=O)C3C4C=CC(C4)C3C2=O)ccc1NC(=O)c1cccs1 (stereo not drawn) | inactive | –
Cc1[nH]c(-c2ccc(F)cc2)cc1C(=O)N1CCN(c2ccc(Cl)cc2)CC1 | inconclusive [inhibitor, single point] | –
COc1ccc(S(=O)(=O)NC(C)C(=O)N2CCCCCC2)cc1 (stereo not drawn) | inactive | –
CN1c2ccccc2C(O)=C(C(=S)Nc2ccc(F)c(Cl)c2)S1(=O)=O | inconclusive [inhibitor, single point] | –
C=CCn1c(=NC(=O)C2CCCCC2)sc2cc(NC(C)=O)ccc21 | inconclusive [inhibitor, single point] | –
O=C(C1CCC1)N1CCc2cc(S(=O)(=O)NCCN3CCN(c4ccccc4F)CC3)ccc21 | inconclusive [inhibitor, single point] | –
Cc1sc2c(c1C)c(=O)n(CCc1ccccc1)c(=O)n2Cc1cccc(F)c1 | inconclusive [inhibitor, single point] | –
Cc1cccc(-c2ccc3c(c2)C2CC3CCN2Cc2ccc3c(c2)OCO3)c1 (stereo not drawn) | inconclusive [inhibitor, single point] | –
O=C(COc1ccccc1Cc1ccccc1)NCCCN1CCOCC1 | inconclusive [inhibitor, partial curve, poor fit] | –
O=C(O)CC(NC(=O)c1cccc([N+](=O)[O-])c1)c1ccc2c(c1)OCO2 (stereo not drawn) | inactive | –
CC(=O)/C(=C/N(C)C)C(=O)Nc1ccc(Cl)cc1Cl | inconclusive [inhibitor, single point] | –
O=C(Nc1ccccc1)Nc1ncc([N+](=O)[O-])s1 | active: 6.51 µM | –

SMILES | Potency | activity change, negative = growth inhibition
Nc1nc(-c2ccc3c(c2)CCC(=O)N3)cs1 | – | inconclusive: -34.6% [inhibitor]
CCCCN(CCCC)C(=O)CN(C)S(=O)(=O)c1ccc2c(c1)c(=O)n(C)c(=O)n2C | active: 23.1 µM | –
C/C(=N\Nc1nccnc1Cl)c1ccc(O)cc1 | inactive | –
Cc1ccc(C)c(OCCCCCn2ccnc2)c1 | inconclusive [inhibitor, single point] | –
O=C(COc1ccc(Br)cc1)NCCCN1CCCC1=O | inactive | –
CCc1nnc2n1N=C(c1ccc(-c3cc(Cl)ccc3Cl)o1)CS2 | inactive | –
CCN(CC)S(=O)(=O)c1ccc(OC)c(NC(=O)C(C)Oc2ccc3c(C)cc(=O)oc3c2)c1 (stereo not drawn) | inconclusive [inhibitor, single point] | –
COC(=O)[C@@H]1C[C@@]2(O)[C@@H](O)[C@@H](O)[C@@H](O)C[C@H]2N1Cc1ccc(C)s1 | inactive | –
Cc1ccc2[nH]c(=O)c(N3CCOCC3)c(-c3ccccc3)c2c1 | inconclusive [inhibitor, partial curve] | –
O=C(C1CCN(Cc2cn[nH]c2-c2ccc(F)cc2F)CC1)N1CCOCC1 | inactive | –
Cc1ccc(NC(=O)/C=C/c2ccc([N+](=O)[O-])s2)cc1 | active: 3.26 µM | –
CCCCOC(=O)c1ccc(Nc2ncnc3[nH]ncc23)cc1 | inconclusive [inhibitor, single point] | –
COC(=O)c1ccccc1Sc1ncnc2onc(C)c12 | active: 14.6 µM | –
C[C@H](CO)N1C[C@H](C)[C@@H](CN(C)C(=O)Nc2ccc3c(c2)OCO3)Oc2ccc(NS(=O)(=O)c3cn(C)cn3)cc2C1=O | inactive | –
CCOC(=O)C1(C)CCCN(C(=O)c2cccc(Cl)c2)C1 (stereo not drawn) | inconclusive [inhibitor, single point] | –
Cc1cccc(C(=O)Nc2ccc(-c3nc4ccccc4s3)cc2Cl)c1 | inconclusive [inhibitor, single point] | –
COc1cc(Br)c(CNc2cc(C)ccc2C)cc1OC | inconclusive [inhibitor, single point] | –
Cc1ccc(S(=O)(=O)N2CCOCC2)cc1NC(=O)COC(=O)Cn1c(C)csc1=O | inactive | –
COc1ccc2oc(=O)cc(CN3CCN(c4ccc(F)cc4)CC3)c2c1 | inconclusive [inhibitor, partial curve] | –
C=CCOc1c(Cl)cc(CNc2nccs2)cc1OC | inactive | –
CCOc1ccccc1C(=O)NCC(=O)OCc1c(C)noc1C | inconclusive [inhibitor, single point] | –
CC(c1ccco1)N(C(=O)c1cc(Cl)cc(Cl)c1)c1ccccn1 (stereo not drawn) | active: 9.2 µM | –
OC(Cn1cnnc1)c1ccccc1 (stereo not drawn) | inactive | –
CC(C)(C)C(=O)OCc1nc(-c2ccc3c(c2)OCCO3)cs1 | inactive | –
CCCCCCCCNS(=O)(=O)CCNCCCC | inconclusive [inhibitor, single point] | –

SMILES | Potency | activity change, negative = growth inhibition
CCOC(=O)c1ccc(CN(Cc2ccccc2)S(=O)(=O)c2ccc(C)cc2)cc1 | active: 29.1 µM | –
CCCCOc1ccc(CN2CCSCC2)cc1 | inconclusive [inhibitor, single point] | –
Cc1ccc(OCCCN2CCC(C(O)(c3ccccc3)c3ccccc3)CC2)cc1 | inconclusive [inhibitor, single point] | –
Cc1[nH]n(-c2ccccc2)c(=O)c1/C=C1\C=NN=C1c1ccccc1 | inactive | –
CCOC(=O)c1ccc(NC(=O)CN(c2ccc(C)cc2)S(=O)(=O)c2c(C)noc2C)cc1 | inconclusive [inhibitor, single point] | –
C(=C\c1nc2ccccc2s1)/c1ccc2c(c1)OCO2 | inconclusive [inhibitor, single point] | –
CC(C)(C)OC(=O)NCCCC[C@H](NC(=O)c1[nH]cnc1C(=O)N[C@@H](Cc1ccccc1)C(=O)OCc1ccccc1)C(=O)OC(C)(C)C | inconclusive [inhibitor, single point] | –
Cc1cc(C(=O)Nc2cccc3ccccc23)c(C)o1 | active: 23.1 µM | –
Cc1cccc(NC(=O)Cn2c(=O)n(-c3ccccc3Cl)c(=O)c3c(C)c(C(=O)N(C)C)sc32)c1 | inconclusive [inhibitor, single point] | –
O=C(Nc1ccc2c(c1)OCO2)c1ccc2sc([C@@H]3O[C@H](CO)[C@H](O)[C@H](O)[C@H]3O)nc2c1 | inconclusive [inhibitor, single point] | –
CCN(c1ccc(C)cc1C)S(=O)(=O)c1nnc(NC(=O)C(C)C)s1 | inconclusive [inhibitor, single point] | –
CCOc1ccc2c(c1)ncn2Cc1ccccc1 | inactive | –
CC(C)(C)C(=O)Nc1ccnn1C1CCN(C(=O)c2ccc(Cl)cc2F)CC1 | inconclusive [inhibitor, partial curve] | –
COc1ccc(C(C)=O)cc1CSc1nnc2c(Cl)cc(Cl)cn12 | inactive | –
Cc1cc(C)cc(N2CC(c3nc(-c4ccccc4C)no3)CC2=O)c1 (stereo not drawn) | inconclusive [inhibitor, single point] | –
S=C(NCCN1CCCCC1)Nc1ccc(Br)cc1 | inactive | –
O=[N+]([O-])c1cccc(/C=N\N=C2c3ccccc3-c3ccccc32)c1O | inconclusive [inhibitor, single point] | –
CCOC(=O)C(C(=O)OCC)c1c([N+](=O)[O-])c(=O)n2c3c(cccc13)CCC2 | inconclusive [inhibitor, single point] | –
COCCNC(=O)c1ccc(C)c(NC(=O)C2=C(C)OCCS2)c1 | inactive | –
CC(C)CCNC(=O)C1CCCN1C(=O)NC1CCCCC1 (stereo not drawn) | inactive | –
CN(CC(=O)NC1(C)CCS(=O)(=O)C1)S(=O)(=O)c1ccc(Cl)cc1 (stereo not drawn) | inactive | –
COc1cccc(NC(=O)CN(C)C(=O)CC2CCCCC2)c1 | inactive | –
Cc1ccc(C(=O)O)cc1NC(=O)c1ccc(Cn2nc(C)c(Cl)c2C)o1 | inactive | –
